# PubChem BioAssay AID602310 (National Center for Advancing Translational Sciences (NCATS), 2012)
# The campaign covered roughly 410,000 compounds. About 310 (0.076%) were called active. The inconclusive results got no clear call from the source; some entries with a clear call stand among them for comparison. Calls come from the whole dose curve; as a rule, active = well fitted curve in the direction sought with a large enough effect; inconclusive = small, poorly fitted or top-dose-only effect; inactive = flat fitted curve, though single readings scatter. A potency beside an inconclusive call is a rough fit, not a confirmed value.
# Target: DNA dC->dU-editing enzyme APOBEC-3G (Homo sapiens) (UniProt Q9HC16)
# Test: qHTS for Inhibitors of Vif-A3G Interactions: qHTS; note: nearly all actives have a fitted effect of over 60% in size;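 for activity, negative = active: hits raise eYFP signal because A3G escapes Vif-driven loss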
# Conditions: HeLa A3G-eYFP + Vif (tagged APOBEC3G with the HIV-1 protein that degrades it), YFP fluorescence, overnight; series mostly up to 46.1 µM; activity, negative = active: at the top concentration
# Description: The recent discovery and characterization of host restriction factors, which provide a potent defense to invading retroviruses, has provided new targets for antiviral drug development. APOBEC3G (A3G) and APOBEC3F (A3F) are potent cytidine deaminases that block HIV-1 replication; HIV-1 expresses the Vif protein, which counteracts A3G and A3F by binding to them and inducing their proteasomal degradation. The Vif-A3G and Vif-A3F interactions provide two potential targets for development of small molecules which can interfere with the ability of Vif to degrade A3G or A3F. […] To identify inhibitors that can interfere with Vif mediated degradation of A3G and A3F, we have developed Hela cell lines that stably express A3G or A3F tagged with eYFP at the C-terminal end (A3G-eYFP or A3F-eYFP, respectively) and Vif. In the absence of an inhibitor, Vif induces degradation of A3G-eYFP and A3F-eYFP, and the cells are not fluorescent. In the presence of an inhibitor, it is expected that Vif will be unable to degrade A3G-eYFP and/or A3F-eYFP, resulting in an increase in yellow fluorescence. In this assays Vif A3G was screened against the Molecular Library Small Molecule Repository (MLSMR). NIH Chemical Genomics Center [NCGC] NIH Molecular Libraries Probe Centers Network [MLPCN] MLPCN Grant: MH093245 Assay Submitter (PI): Vinay Pathak, National Cancer Institute
# 5 uL of 700 cells/well of A3G-YFP cells are dispensed into black, clear bottom plates. The plates are incubated overnight at 37 deg C. 23 nL of compounds are added by pintool. The plates are incubated overnight at 37 deg C and then read on the TTP Acumen (Ex 488/ Em 500-530).
# % is set by controls: 0 for no effect and ±100 for the full control effect; potency is the fitted concentration of half-maximal effect; tags give direction and shape of the fitted curve.
# UniProt Q9HC16, sequence (Q9HC16 whole entry, looked up): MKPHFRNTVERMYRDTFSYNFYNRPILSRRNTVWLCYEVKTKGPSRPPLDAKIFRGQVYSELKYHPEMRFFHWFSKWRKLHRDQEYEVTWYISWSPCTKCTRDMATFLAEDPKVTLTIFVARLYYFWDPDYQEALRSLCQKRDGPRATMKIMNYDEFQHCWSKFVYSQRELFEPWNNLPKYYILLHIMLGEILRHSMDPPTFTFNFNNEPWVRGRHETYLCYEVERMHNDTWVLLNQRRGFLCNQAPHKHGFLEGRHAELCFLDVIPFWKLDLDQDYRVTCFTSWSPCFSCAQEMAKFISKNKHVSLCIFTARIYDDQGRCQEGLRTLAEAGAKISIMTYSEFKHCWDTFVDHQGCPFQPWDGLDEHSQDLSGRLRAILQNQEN
SMILES,Potency,"activity, negative = active"
NS(=O)(=O)c1ccc(N=Nc2nc3[nH]cnc(=S)c3[nH]2)cc1,"inconclusive: 2 µM [inhibitor, full curve, poor fit]",–
COc1ccc(NC(=S)Nc2ncccc2C)c(OC)c1,active: 11.2 µM,–
Cc1cc(C)n(-c2nc(NCC3CCCO3)c3c4c(sc3n2)COC(C)(C)C4)n1 (configuration not stated),–,inactive: -8.32%
Cc1ccc(S(=O)(=O)C=CS(=O)(=O)c2ccc(C)cc2)cc1,"inconclusive: 35.5 µM [inhibitor, single point]",–
CCCCNC(=O)c1ccc2c(c1)N=C(CC)c1ccccc1S2,"inconclusive: 2 µM [inhibitor, full curve, poor fit]",–
COc1ccc(-c2csc3ncnc(N4CCN(C(=O)c5ccco5)CC4)c23)cc1,"inconclusive: 14.1 µM [inhibitor, single point]",–
Cn1nc(-c2ccccc2)c(CSc2ccccc2Cl)c1Cl,"inconclusive: 2.51 µM [inhibitor, full curve, poor fit]",–
NC(COCc1ccccc1)c1csc(NC(=O)Nc2cccc(C(F)(F)F)c2)n1 (configuration not stated),–,inactive: 3.14%
COc1cccc(-c2csc(N3CCN(C(=S)Nc4ccccc4)CC3)n2)c1,–,inactive: -0.63%
CCCCOc1ccccc1C1CC(=O)Nc2cc(C)c(C)cc21 (configuration not stated),–,inactive: -14.5%
COc1ccc(S(=O)(=O)Nc2cc3c4c(oc3c3ccccc23)CCCC4=O)cc1,"inconclusive: 2.82 µM [inhibitor, partial curve, poor fit]",–
O=C(CNC(=O)Cc1ccccc1)NCC(=O)OCC(=O)c1cccc2ccccc12,"inconclusive: 3.55 µM [inhibitor, single point]",–
CC1Cc2cc(/C=C3/SC(N4CCC(C(N)=O)CC4)=NC3=O)ccc2O1 (configuration not stated),"inconclusive: 22.4 µM [inhibitor, partial curve, poor fit]",–
COc1ccccc1-c1nc(SCC(=O)Nc2ccccc2F)n[nH]1,"inconclusive: 12.6 µM [inhibitor, single point]",–
Cc1c(C(=O)C(=O)N2CC=C(c3ccccc3)CC2)c2ccccc2n1C,"inconclusive: 1.78 µM [inhibitor, full curve, poor fit]",–
CCOc1ccc2c(c1)C(=O)C(=O)N2CC1COc2ccccc2O1 (configuration not stated),–,inactive: -1.59%
COCCNC(=O)C1(C)Cc2c(-c3cccc(C(F)(F)F)c3)ccnc2O1 (configuration not stated),"inconclusive: 12.6 µM [inhibitor, partial curve, poor fit]",–
CC1(C(=O)OCC(=O)Nc2nc(-c3ccc(F)c(F)c3)cs2)CC1(Cl)Cl (configuration not stated),–,inactive: -4.18%
CN(C)C(=O)c1cccc(-c2cnc3c(NC=O)cc(-c4ccccc4F)cn23)c1,"inconclusive: 12.6 µM [inhibitor, partial curve, poor fit]",–
COc1ccc(-c2cc(-c3cccs3)nc3sc(C#N)c(N)c23)cc1,"inconclusive: 35.5 µM [inhibitor, single point]",–
Cc1nnc(SC(=O)N2c3ccccc3Sc3ccccc32)s1,"inconclusive: 6.31 µM [inhibitor, partial curve, poor fit]",–
CCOC(=O)c1cc(-c2ccccc2)sc1NC(=O)CC,–,inactive: -4.11%
OC(COc1ccccc1)CN1CCN(CC(O)COc2ccccc2)CC1 (configuration not stated),–,inactive: 3.91%

SMILES,Potency,"activity, negative = active"
COc1ccccc1NC(=O)C(Sc1ccccc1)c1ccccc1 (configuration not stated),–,inactive: -3.42%
COc1ccc(-c2cc(-c3ccc(O)cc3)nc(N)c2C#N)cc1OC,"inconclusive: 12.6 µM [inhibitor, single point]",–
Cc1nn(Cc2ccc(Cl)c(Cl)c2)c(C)c1NC(=O)c1cc(-c2ccc3c(c2)OCO3)on1,"inconclusive: 25.1 µM [inhibitor, single point]",–
CS(=O)(=O)Nc1cccc2cccnc12,"inconclusive: 25.1 µM [inhibitor, single point]",–
Cc1ccc(-c2cc(-c3ccccc3)c3c(N)c(S(C)(=O)=O)sc3n2)cc1,–,inactive: -6.49%
C=CCOc1ccc(C=CC(=O)c2c(O)c(OC)c(OC)c(OC)c2OC)cc1,–,inactive: -18.6%
Cc1ccccc1Oc1nc2c(C)cccn2c(=O)c1/C=C(\C#N)C(=O)Nc1c(C)n(C)n(-c2ccccc2)c1=O,–,inactive: -16.3%
COc1ccc(-c2csc(NC(C)c3nc4cc(Cl)c(Cl)cc4n3CCOCCO)n2)cc1 (configuration not stated),"inconclusive: 20 µM [inhibitor, single point]",–
C[C@@]12C(=O)Nc3cc(Cl)ccc3C(=O)N1[C@H]1c3cc(Br)ccc3OC[C@@H]1[C@@H]2c1ccccc1,"inconclusive: 5.62 µM [inhibitor, partial curve, poor fit]",–
CC(OC(=O)/C(C#N)=C/c1ccc(N(C)C)cc1)C(=O)N(C)Cc1ccccc1 (configuration not stated),"inconclusive: 31.6 µM [inhibitor, single point]",–
O=S(=O)(c1ccc(NC(=S)NC23CC4CC(CC(C4)C2)C3)cc1)N1CCCCC1,–,inactive: 3.98%
NC(CSC(c1ccccc1)(c1ccccc1)c1ccc2c(c1)OCO2)C(=O)O (configuration not stated),"inconclusive: 2.82 µM [inhibitor, full curve, poor fit]",–
COCCCNC(=O)c1ccc(C(=O)NCCCOC)cc1,–,inactive: -3.23%
CCOC(=O)c1ccc(NC(=O)CSc2nc(-c3ccc(F)cc3)cc(C(F)(F)F)c2C#N)cc1,–,inactive: -7.61%
O=c1c2ccccc2nc(-c2cccs2)n1-c1ccc2ccccc2c1,"inconclusive: 3.98 µM [inhibitor, partial curve, poor fit]",–
CC1C(O)=C(c2nc3ccccc3[nH]2)C(=N)N1c1ccccc1 (configuration not stated),"inconclusive: 17.8 µM [inhibitor, single point]",–
COc1ccc2[nH]c3c4c(ccc3c2c1)C(=O)C=CC4=O,"inconclusive: 2.24 µM [inhibitor, full curve, poor fit]",–
Cc1ccc(S(=O)(=O)Nc2cc(-c3nn(C)c(=O)c4ccccc34)ccc2N2CCOCC2)cc1,"inconclusive: 7.08 µM [inhibitor, full curve, poor fit]",–
Nc1ccc(SC(F)(F)F)cc1C(=O)c1ccccc1,"inconclusive: 11.2 µM [inhibitor, single point]",–
COC(=O)c1cnc(Oc2ccc(NC(=O)NC(=O)c3c(OC)cccc3OC)cc2)cc1C(F)(F)F,"inconclusive: 0.631 µM [inhibitor, full curve, poor fit]",–
COc1ccc(OC)c(CN2CCN(Cc3ccc(OC)c(OC)c3OC)CC2)c1,–,inactive: -0.695%
CCOc1ccc(C(=O)Nc2cccc(NC(=O)c3ccc(Cl)cc3Cl)c2)cc1,"inconclusive: 22.4 µM [inhibitor, single point]",–
N/C(=C\C(=O)c1cc(Cl)ccc1O)C(Cl)(Cl)Cl,"inconclusive: 4.47 µM [inhibitor, full curve]",–

SMILES,Potency,"activity, negative = active"
CCN(CC)c1ccc(NC(=O)c2cc(OC)cc(OC)c2)c(C)c1,"inconclusive: 1.12 µM [inhibitor, full curve, poor fit]",–
COc1ccc(NC(=O)Cc2csc(NC(=O)Nc3ccccc3OC)n2)cc1,"inconclusive: 35.5 µM [inhibitor, single point]",–
COc1cccc(NC(=O)c2cc(Cl)nnc2Cl)c1,"inconclusive: 35.5 µM [inhibitor, single point]",–
COC(=O)c1ccc(Nc2cc(C)nc3ccccc23)cc1,"inconclusive: 35.5 µM [inhibitor, single point]",–
Cc1cc(C)cc(NC(=S)NC(=O)C2CC2)c1,–,inactive: 0.451%
COc1cccc(NC(=O)/C(C#N)=C/c2c(C)n(Cc3ccccc3)c3ccccc23)c1,"inconclusive: 35.5 µM [inhibitor, single point]",–
O=C(Nc1ccc(Cl)c(C(F)(F)F)c1)c1nc2ccccc2nc1N1CCCCC1,"inconclusive: 15.8 µM [inhibitor, single point]",–
COc1ccc(N=C2NC(=O)S/C2=C\c2ccc(N(C)C)cc2)cc1,"inconclusive: 11.2 µM [inhibitor, partial curve]",–
CC(=O)Nc1ccc(Nc2nc3c(S(=O)(=O)c4cc(C)ccc4C)nnn3c3ccsc23)cc1,–,inactive: 1.88%
O=C1c2cc(Cl)ccc2-c2c(O)cc(Cl)cc21,"inconclusive: 35.5 µM [inhibitor, single point]",–
CCCCc1ccc(-c2csc(/C(C#N)=C\c3ccco3)n2)cc1,–,inactive: -0.543%
CCOC(=O)C1C(c2cccc([N+](=O)[O-])c2)C2C(=O)NN=C2CC1(C)O (configuration not stated),"inconclusive: 35.5 µM [inhibitor, single point]",–
CN(Cc1ccccc1)C(=O)c1ccc([N+](=O)[O-])o1,"inconclusive: 22.4 µM [inhibitor, single point]",–
CC1CCN(C(=O)c2ccc3c(c2)NC(=O)CN3)CC1,"inconclusive: 5.62 µM [inhibitor, full curve]",–
CCN(CC)C(=O)CSc1nc2c(sc(=S)n2-c2ccccc2)c(=O)n1-c1ccc(OC)c(OC)c1,–,inactive: -7.26%
CCc1nc2sc3c(c2c(=O)n1NC(=O)CCl)CCCC3,"inconclusive: 10 µM [inhibitor, partial curve]",–
Cc1cccc(-n2ncc(Cl)c(Cl)c2=O)c1,"inconclusive: 35.5 µM [inhibitor, single point]",–
CCOc1cc(CNCCO)cc(Br)c1OCc1ccc(Cl)cc1,"inconclusive: 25.1 µM [inhibitor, single point]",–
O=C(CN1C(=O)/C(=C\C=C\c2ccccc2)SC1=S)Nc1ccc(F)cc1,"inconclusive: 35.5 µM [inhibitor, partial curve, poor fit]",–
N=C1C(c2nc3ccccc3s2)=C(O)CN1c1ccccc1,"inconclusive: 12.6 µM [inhibitor, single point]",–
CC(C)C(=O)N1CCN(c2ccccc2NC(=O)COc2ccc(C3CCCCC3)cc2)CC1,–,inactive: 0.0379%
